# Source: the supplement of paper PMC8728848
# The list shows a part of the results.
# Columns and labels:
# Experiment in all cases: glycan array binding signal (z-score within array); higher = stronger binding
# Settings in all cases: glycan notation: IUPAC condensed, linker removed
# [1] = molecular target: Fuc(a1-2)Gal
# Method in brief: (§1)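 Arrays were curated from the Consortium for Functional Glycomics database, 3228 in total, and kept only where the protein sequence was available. Binding is expressed as a within-array Z-score. This score was averaged across arrays of the same protein sequence at different concentrations or buffers and across linkers, and negative values can be read as non-binding.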
# [2] = molecular target: Fuc(a1-2)Gal(b1-3)GalNAc
# Method in brief: as §1
# [3] = molecular target: Fuc(a1-2)Gal(b1-3)GalNAc(b1-3)Gal
# Method in brief: as §1
# [4] = molecular target: Fuc(a1-2)Gal(b1-3)GalNAc(b1-3)Gal(a1-4)Gal(b1-4)Glc
# Method in brief: as §1
# [5] = molecular target: Fuc(a1-2)Gal(b1-3)GalNAc(b1-4)[Neu5Ac(a2-3)]Gal(b1-4)Glc
# Method in brief: as §1
# [6] = molecular target: Fuc(a1-2)Gal(b1-3)GlcNAc
# Method in brief: as §1
# [7] = molecular target: Fuc(a1-2)Gal(b1-3)GlcNAc(b1-3)Gal(b1-4)Glc
# Method in brief: as §1
# [8] = molecular target: Fuc(a1-2)Gal(b1-3)[Fuc(a1-4)]GlcNAc
# Method in brief: as §1
# [9] = molecular target: Fuc(a1-2)Gal(b1-4)Glc
# Method in brief: as §1
# [10] = molecular target: Fuc(a1-2)Gal(b1-4)GlcNAc
# Method in brief: as §1
# [11] = molecular target: Fuc(a1-2)Gal(b1-4)GlcNAc(b1-3)Gal(b1-4)GlcNAc
# Method in brief: as §1
# [12] = molecular target: Fuc(a1-2)Gal(b1-4)GlcNAc(b1-3)Gal(b1-4)GlcNAc(b1-3)Gal(b1-4)GlcNAc
# Method in brief: as §1
# [13] = molecular target: Fuc(a1-2)Gal(b1-4)[Fuc(a1-3)]GlcNAc
# Method in brief: as §1
# [14] = molecular target: Fuc(a1-2)Gal(b1-4)[Fuc(a1-3)]GlcNAc(b1-3)Gal(b1-4)[Fuc(a1-3)]GlcNAc
# Method in brief: as §1
# [15] = molecular target: Fuc(a1-2)Gal(b1-4)[Fuc(a1-3)]GlcNAc(b1-3)Gal(b1-4)[Fuc(a1-3)]GlcNAc(b1-3)Gal(b1-4)[Fuc(a1-3)]GlcNAc
# Method in brief: as §1
# [16] = molecular target: Fuc(a1-2)GlcNAc
# Method in brief: as §1
# [17] = molecular target: Fuc(a1-2)[Gal(a1-3)]Gal
# Method in brief: as §1
# [18] = molecular target: Fuc(a1-2)[Gal(a1-3)]Gal(b1-3)GlcNAc
# Method in brief: as §1
# [19] = molecular target: Fuc(a1-2)[Gal(a1-3)]Gal(b1-4)Glc
# Method in brief: as §1
# [20] = molecular target: Fuc(a1-2)[Gal(a1-3)]Gal(b1-4)GlcNAc
# Method in brief: as §1
# [21] = molecular target: Fuc(a1-2)[Gal(a1-3)]Gal(b1-4)[Fuc(a1-3)]GlcNAc
# Method in brief: as §1
# [22] = molecular target: Fuc(a1-2)[Gal(a1-4)]Gal(b1-4)GlcNAc
# Method in brief: as §1
# [23] = molecular target: Fuc(a1-2)[GalNAc(a1-3)]Gal
# Method in brief: as §1
# [24] = molecular target: Fuc(a1-2)[GalNAc(a1-3)]Gal(b1-3)GlcNAc
# Method in brief: as §1
# [25] = molecular target: Fuc(a1-2)[GalNAc(a1-3)]Gal(b1-4)Glc
# Method in brief: as §1
# [26] = molecular target: Fuc(a1-2)[GalNAc(a1-3)]Gal(b1-4)GlcNAc
# Method in brief: as §1
# [27] = molecular target: Fuc(a1-2)[GalNAc(a1-3)]Gal(b1-4)[Fuc(a1-3)]GlcNAc
# Method in brief: as §1
# [28] = molecular target: Fuc(a1-2)[GalNAc(a1-4)]Gal(b1-4)GlcNAc
# Method in brief: as §1
# [29] = molecular target: Fuc(a1-2)[GalNAc(b1-3)]Gal
# Method in brief: as §1
# [30] = molecular target: Fuc(a1-3)GlcNAc
# Method in brief: as §1
# [31] = molecular target: Fuc(a1-3)[Gal(b1-4)]GlcNAc
# Method in brief: as §1
# [32] = molecular target: Fuc(a1-3)[Gal(b1-4)]GlcNAc(b1-4)Gal(b1-4)[Fuc(a1-3)]GlcNAc
# Method in brief: as §1
# [33] = molecular target: Fuc(a1-3)[Gal(b1-4)]GlcNAc(b1-4)Gal(b1-4)[Fuc(a1-3)]GlcNAc(b1-4)Gal(b1-4)[Fuc(a1-3)]GlcNAc
# Method in brief: as §1
# [34] = molecular target: Fuc(a1-3)[Gal3S(b1-4)]GlcNAc
# Method in brief: as §1
# [35] = molecular target: Fuc(a1-3)[GalNAc(b1-4)]GlcNAc
# Method in brief: as §1
# [36] = molecular target: Fuc(a1-4)GlcNAc
# Method in brief: as §1
# [37] = molecular target: Fuc(b1-3)GlcNAc
# Method in brief: as §1
# [38] = molecular target: Gal(a1-2)Gal
# Method in brief: as §1
# [39] = molecular target: Gal(a1-3)Gal
# Method in brief: as §1
# [40] = molecular target: Gal(a1-3)Gal(b1-3)GlcNAc
# Method in brief: as §1
# [41] = molecular target: Gal(a1-3)Gal(b1-4)Glc
# Method in brief: as §1
# [42] = molecular target: Gal(a1-3)Gal(b1-4)GlcNAc
# Method in brief: as §1
# [43] = molecular target: Gal(a1-3)Gal(b1-4)[Fuc(a1-3)]GlcNAc
# Method in brief: as §1
# [44] = molecular target: Gal(a1-3)GalNAc
# Method in brief: as §1
# [45] = molecular target: Gal(a1-3)[Gal(a1-4)]Gal(b1-4)GlcNAc
# Method in brief: as §1
# [46] = molecular target: Gal(a1-4)Gal(b1-4)Glc
# Method in brief: as §1
# [47] = molecular target: Gal(a1-4)Gal(b1-4)GlcNAc
# Method in brief: as §1
# [48] = molecular target: Gal(a1-4)GlcNAc
# Method in brief: as §1
# [49] = molecular target: Gal(a1-6)Glc
# Method in brief: as §1
# [50] = molecular target: Gal(b1-2)Gal
# Method in brief: as §1
# [51] = molecular target: Gal(b1-3)Gal
# Method in brief: as §1
# [52] = molecular target: Gal(b1-3)GalNAc
# Method in brief: as §1
# [53] = molecular target: Gal(b1-3)GalNAc(b1-3)Gal(a1-4)Gal(b1-4)Glc
# Method in brief: as §1
# [54] = molecular target: Gal(b1-3)GalNAc(b1-4)Gal(b1-4)Glc
# Method in brief: as §1
# [55] = molecular target: Gal(b1-3)GalNAc(b1-4)[Neu5Ac(a2-3)]Gal(b1-4)Glc
# Method in brief: as §1
# [56] = molecular target: Gal(b1-3)GlcNAc
# Method in brief: as §1
# [57] = molecular target: Gal(b1-3)GlcNAc(b1-3)Gal(b1-4)Glc
# Method in brief: as §1
# [58] = molecular target: Gal(b1-3)GlcNAc(b1-3)Gal(b1-4)GlcNAc
# Method in brief: as §1
# [59] = molecular target: Gal(b1-3)[Fuc(a1-4)]GlcNAc
# Method in brief: as §1
# [60] = molecular target: Gal(b1-3)[Fuc(a1-4)]GlcNAc(b1-3)Gal(b1-4)GlcNAc
# Method in brief: as §1
binder,measurement,setting,value
SIGNR8 (Mus musculus) (protein) MAGEPEFHQSKNHEEEVTSGEQGFAEHDPEGLICSSKSLQGHLTQVPWLLLLLISLGLFLLMLATLVQVSRIRAYSQGQTQDQQGSSSLDKVAVPREQTHSGLEQIQQIQQQLTQFNASLAGLCRPCPWDWELFQGSCYLFSRTLGSWETSASSCEDLGAHLVIVNSVSEQRFMKYWNVRKNQRSWIGLSDHIHEGSWQWVDGSALKFSFWKEGEPNNDGDEDCVELFMDDWNDNKCTEQNFWVCEQPSAPCPHH,glycan array binding signal (z-score),[1],-0.329
same,glycan array binding signal (z-score),[2],-0.368
same,glycan array binding signal (z-score),[3],-0.395
same,glycan array binding signal (z-score),[4],-0.393
same,glycan array binding signal (z-score),[5],-0.379
same,glycan array binding signal (z-score),[6],-0.376
same,glycan array binding signal (z-score),[7],-0.385
same,glycan array binding signal (z-score),[8],-0.296
same,glycan array binding signal (z-score),[9],-0.381
same,glycan array binding signal (z-score),[10],-0.367
same,glycan array binding signal (z-score),[11],-0.392
same,glycan array binding signal (z-score),[12],-0.387
same,glycan array binding signal (z-score),[13],-0.385
same,glycan array binding signal (z-score),[14],-0.372
same,glycan array binding signal (z-score),[15],-0.373
same,glycan array binding signal (z-score),[16],-0.354
same,glycan array binding signal (z-score),[17],2.32
same,glycan array binding signal (z-score),[18],1.41
same,glycan array binding signal (z-score),[19],2.18
same,glycan array binding signal (z-score),[20],2.94
same,glycan array binding signal (z-score),[21],1.38
same,glycan array binding signal (z-score),[22],3.32
same,glycan array binding signal (z-score),[23],-0.391
same,glycan array binding signal (z-score),[24],-0.363
same,glycan array binding signal (z-score),[25],-0.376
same,glycan array binding signal (z-score),[26],-0.386
same,glycan array binding signal (z-score),[27],-0.386
same,glycan array binding signal (z-score),[28],-0.372
same,glycan array binding signal (z-score),[29],-0.36
same,glycan array binding signal (z-score),[30],-0.347
same,glycan array binding signal (z-score),[31],-0.382
same,glycan array binding signal (z-score),[32],-0.385
same,glycan array binding signal (z-score),[33],-0.399
same,glycan array binding signal (z-score),[34],-0.358
same,glycan array binding signal (z-score),[35],-0.369
same,glycan array binding signal (z-score),[36],-0.387
same,glycan array binding signal (z-score),[37],-0.383
same,glycan array binding signal (z-score),[38],-0.384
same,glycan array binding signal (z-score),[39],2.62
same,glycan array binding signal (z-score),[40],2.63
same,glycan array binding signal (z-score),[41],3.07
same,glycan array binding signal (z-score),[42],3.18
same,glycan array binding signal (z-score),[43],2.67
same,glycan array binding signal (z-score),[44],0.051
same,glycan array binding signal (z-score),[45],4.59
same,glycan array binding signal (z-score),[46],1.58
same,glycan array binding signal (z-score),[47],2.59
same,glycan array binding signal (z-score),[48],2.92
same,glycan array binding signal (z-score),[49],0.814
same,glycan array binding signal (z-score),[50],-0.374
same,glycan array binding signal (z-score),[51],4.35
same,glycan array binding signal (z-score),[52],-0.377
same,glycan array binding signal (z-score),[53],-0.382
same,glycan array binding signal (z-score),[54],-0.375
same,glycan array binding signal (z-score),[55],-0.329
same,glycan array binding signal (z-score),[56],-0.36
same,glycan array binding signal (z-score),[57],-0.386
same,glycan array binding signal (z-score),[58],-0.379
same,glycan array binding signal (z-score),[59],-0.366
same,glycan array binding signal (z-score),[60],-0.376
